# Data reported in the supplement of paper PMC8728848.
# The list shows a part of the results.
# B1: RBMC2 (Vibrio cholerae) (protein)
# chain: KISVRSGFAIDAIGASASTLVGGTGGNLNAAVNVKDIKAIDLTWGKYYWGGYHLLALDFRMSNGSVISMGSKNYAYSKQTERFTVPAGSRIKGIKAWTAGWLLDGVQFELA
# What was measured:
# Test in all cases: glycan array binding signal (z-score within array); higher = stronger binding
# Conditions in all cases: glycan notation: IUPAC condensed, linker removed
# [1] = biological target: Gal(b1-4)GlcNAc(b1-3)Gal(b1-4)GlcNAc(b1-6)[Gal(b1-3)]GalNAc
# How it was run: (§1)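 Glycan array binding is given as a within-array Z-score, which can be read as non-binding when negative. The arrays, 3228 of them, came from the Consortium for Functional Glycomics database and were retained only where the protein sequence was available. Z-scores were averaged across arrays of the same protein sequence at different concentrations or buffers and across linkers.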
# [2] = biological target: Gal(b1-4)GlcNAc(b1-3)Gal(b1-4)[Fuc(a1-3)]GlcNAc(b1-3)Gal(b1-4)[Fuc(a1-3)]GlcNAc
# How it was run: as §1
# [3] = biological target: Gal(b1-4)GlcNAc(b1-3)GalNAc
# How it was run: as §1
# [4] = biological target: Gal(b1-4)GlcNAc(b1-3)[Fuc(a1-3)GlcNAc(b1-6)]Gal(b1-4)Glc
# How it was run: as §1
# [5] = biological target: Gal(b1-4)GlcNAc(b1-3)[Gal(b1-4)GlcNAc(b1-6)]Gal(b1-4)GlcNAc
# How it was run: as §1
# [6] = biological target: Gal(b1-4)GlcNAc(b1-3)[GlcNAc(b1-6)]Gal(b1-4)GlcNAc
# How it was run: as §1
# [7] = biological target: Gal(b1-4)GlcNAc(b1-6)Gal(b1-4)GlcNAc
# How it was run: as §1
# [8] = biological target: Gal(b1-4)GlcNAc(b1-6)GalNAc
# How it was run: as §1
# [9] = biological target: Gal(b1-4)GlcNAc(b1-6)[Gal(b1-3)]GalNAc
# How it was run: as §1
# [10] = biological target: Gal(b1-4)GlcNAc(b1-6)[Gal(b1-4)GlcNAc(b1-3)]GalNAc
# How it was run: as §1
# Gal(b1-4)GlcNAc6P = biological target: Gal(b1-4)GlcNAc6P
# How it was run: as §1
# Gal(b1-6)Gal = biological target: Gal(b1-6)Gal
# How it was run: as §1
# Gal3S(b1-3)GalNAc = biological target: Gal3S(b1-3)GalNAc
# How it was run: as §1
# Gal3S(b1-3)GlcNAc = biological target: Gal3S(b1-3)GlcNAc
# How it was run: as §1
# [11] = biological target: Gal3S(b1-3)[Fuc(a1-4)]GlcNAc
# How it was run: as §1
# Gal3S(b1-4)Glc = biological target: Gal3S(b1-4)Glc
# How it was run: as §1
# Gal3S(b1-4)Glc6S = biological target: Gal3S(b1-4)Glc6S
# How it was run: as §1
# Gal3S(b1-4)GlcNAc = biological target: Gal3S(b1-4)GlcNAc
# How it was run: as §1
# [12] = biological target: Gal3S(b1-4)[Fuc(a1-3)]Glc6S
# How it was run: as §1
# [13] = biological target: Gal3S(b1-4)[Fuc(a1-3)]GlcNAc
# How it was run: as §1
# [14] = biological target: Gal3S(b1-4)[Fuc(a1-3)]GlcNAc6S
# How it was run: as §1
# Gal3S4S(b1-4)GlcNAc = biological target: Gal3S4S(b1-4)GlcNAc
# How it was run: as §1
# Gal3S6S(b1-4)GlcNAc = biological target: Gal3S6S(b1-4)GlcNAc
# How it was run: as §1
# Gal3S6S(b1-4)GlcNAc6S = biological target: Gal3S6S(b1-4)GlcNAc6S
# How it was run: as §1
# Gal4S(b1-4)GlcNAc = biological target: Gal4S(b1-4)GlcNAc
# How it was run: as §1
# Gal4S6S(b1-4)GlcNAc = biological target: Gal4S6S(b1-4)GlcNAc
# How it was run: as §1
# Gal6P(b1-4)GlcNAc = biological target: Gal6P(b1-4)GlcNAc
# How it was run: as §1
# Gal6S(b1-3)GlcNAc = biological target: Gal6S(b1-3)GlcNAc
# How it was run: as §1
# Gal6S(b1-3)GlcNAc6S = biological target: Gal6S(b1-3)GlcNAc6S
# How it was run: as §1
# Gal6S(b1-4)Glc = biological target: Gal6S(b1-4)Glc
# How it was run: as §1
# Gal6S(b1-4)Glc6S = biological target: Gal6S(b1-4)Glc6S
# How it was run: as §1
# Gal6S(b1-4)GlcNAc = biological target: Gal6S(b1-4)GlcNAc
# How it was run: as §1
# Gal6S(b1-4)GlcNAc6S = biological target: Gal6S(b1-4)GlcNAc6S
# How it was run: as §1
# GalNAc(a1-3)Gal = biological target: GalNAc(a1-3)Gal
# How it was run: as §1
# GalNAc(a1-3)GalNAc = biological target: GalNAc(a1-3)GalNAc
# How it was run: as §1
# [15] = biological target: GalNAc(a1-3)GalNAc(b1-3)Gal(a1-4)Gal(b1-4)Glc
# How it was run: as §1
# [16] = biological target: GalNAc(a1-3)GalNAc(b1-3)Gal(a1-4)Gal(b1-4)GlcNAc
# How it was run: as §1
# GalNAc(b1-3)Gal = biological target: GalNAc(b1-3)Gal
# How it was run: as §1
# [17] = biological target: GalNAc(b1-3)Gal(a1-4)Gal(b1-4)GlcNAc
# How it was run: as §1
# [18] = biological target: GalNAc(b1-3)Gal(a1-4)Gal(b1-4)GlcNAc(b1-3)Gal(b1-4)Glc
# How it was run: as §1
# [19] = biological target: GalNAc(b1-3)Gal(a1-6)Gal(b1-4)Glc
# How it was run: as §1
# GalNAc(b1-3)GalNAc = biological target: GalNAc(b1-3)GalNAc
# How it was run: as §1
# GalNAc(b1-3)GlcNAc = biological target: GalNAc(b1-3)GlcNAc
# How it was run: as §1
# GalNAc(b1-4)Gal(b1-4)Glc = biological target: GalNAc(b1-4)Gal(b1-4)Glc
# How it was run: as §1
# GalNAc(b1-4)GlcNAc = biological target: GalNAc(b1-4)GlcNAc
# How it was run: as §1
binder,measurement,setting,value
B1,glycan array binding signal (z-score),[1],-0.296
same,glycan array binding signal (z-score),[2],-0.252
same,glycan array binding signal (z-score),[3],-0.364
same,glycan array binding signal (z-score),[4],-0.295
same,glycan array binding signal (z-score),[5],-0.357
same,glycan array binding signal (z-score),[6],-0.184
same,glycan array binding signal (z-score),[7],-0.348
same,glycan array binding signal (z-score),[8],-0.243
same,glycan array binding signal (z-score),[9],-0.013
same,glycan array binding signal (z-score),[10],-0.423
same,glycan array binding signal (z-score),Gal(b1-4)GlcNAc6P,-0.292
same,glycan array binding signal (z-score),Gal(b1-6)Gal,-0.2
same,glycan array binding signal (z-score),Gal3S(b1-3)GalNAc,-0.23
same,glycan array binding signal (z-score),Gal3S(b1-3)GlcNAc,-0.436
same,glycan array binding signal (z-score),[11],-0.327
same,glycan array binding signal (z-score),Gal3S(b1-4)Glc,-0.368
same,glycan array binding signal (z-score),Gal3S(b1-4)Glc6S,-0.273
same,glycan array binding signal (z-score),Gal3S(b1-4)GlcNAc,-0.303
same,glycan array binding signal (z-score),[12],-0.305
same,glycan array binding signal (z-score),[13],-0.263
same,glycan array binding signal (z-score),[14],-0.175
same,glycan array binding signal (z-score),Gal3S4S(b1-4)GlcNAc,-0.108
same,glycan array binding signal (z-score),Gal3S6S(b1-4)GlcNAc,-0.406
same,glycan array binding signal (z-score),Gal3S6S(b1-4)GlcNAc6S,-0.038
same,glycan array binding signal (z-score),Gal4S(b1-4)GlcNAc,-0.438
same,glycan array binding signal (z-score),Gal4S6S(b1-4)GlcNAc,-0.217
same,glycan array binding signal (z-score),Gal6P(b1-4)GlcNAc,-0.201
same,glycan array binding signal (z-score),Gal6S(b1-3)GlcNAc,-0.328
same,glycan array binding signal (z-score),Gal6S(b1-3)GlcNAc6S,-0.337
same,glycan array binding signal (z-score),Gal6S(b1-4)Glc,-0.358
same,glycan array binding signal (z-score),Gal6S(b1-4)Glc6S,-0.283
same,glycan array binding signal (z-score),Gal6S(b1-4)GlcNAc,-0.426
same,glycan array binding signal (z-score),Gal6S(b1-4)GlcNAc6S,-0.293
same,glycan array binding signal (z-score),GalNAc(a1-3)Gal,-0.285
same,glycan array binding signal (z-score),GalNAc(a1-3)GalNAc,-0.314
same,glycan array binding signal (z-score),[15],-0.225
same,glycan array binding signal (z-score),[16],-0.401
same,glycan array binding signal (z-score),GalNAc(b1-3)Gal,-0.362
same,glycan array binding signal (z-score),[17],-0.197
same,glycan array binding signal (z-score),[18],-0.466
same,glycan array binding signal (z-score),[19],-0.427
same,glycan array binding signal (z-score),GalNAc(b1-3)GalNAc,-0.375
same,glycan array binding signal (z-score),GalNAc(b1-3)GlcNAc,-0.109
same,glycan array binding signal (z-score),GalNAc(b1-4)Gal(b1-4)Glc,-0.284
same,glycan array binding signal (z-score),GalNAc(b1-4)GlcNAc,-0.277
